These results are taken from paper PMC9911399, “Two distinct binding modes provide the RNA-binding protein RbFox with extraordinary sequence specificity”.

To fix the notation:
T1: RBFOX1 RRM (Homo sapiens, UniProt Q9NWB1 109-208)
T1 sequence: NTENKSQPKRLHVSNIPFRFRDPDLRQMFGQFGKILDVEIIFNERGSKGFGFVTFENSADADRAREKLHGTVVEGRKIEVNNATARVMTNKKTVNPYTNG

B1: ACUUCGA (DNA:RNA)
RNA: GGGAGACCGGAAUUCAGAUUGUCCACUUCGAUUAAAUCCCGUCGUAGCCACCA
DNA 1: CAATCTGAATTCCGGTCTCCC
DNA 2: TGGTGGCTACGACGGGATT
B2: UACCACG (DNA:RNA)
RNA: GGGAGACCGGAAUUCAGAUUGUCCUACCACGUUAAAUCCCGUCGUAGCCACCA
DNA 1: CAATCTGAATTCCGGTCTCCC
DNA 2: TGGTGGCTACGACGGGATT
B3: GGUACAC (DNA:RNA)
RNA: B1 RNA with A25G, C26G, U28A, G30A, A31C
DNA 1: CAATCTGAATTCCGGTCTCCC
DNA 2: TGGTGGCTACGACGGGATT
B4: CGCCGUU (DNA:RNA)
RNA: B2 RNA with U25C, A26G, A29G, C30U, G31U
DNA 1: CAATCTGAATTCCGGTCTCCC
DNA 2: TGGTGGCTACGACGGGATT
B5: GGUUGCA (DNA:RNA)
RNA: B1 RNA with A25G, C26G, C29G, G30C
DNA 1: CAATCTGAATTCCGGTCTCCC
DNA 2: TGGTGGCTACGACGGGATT
B6: ACCGAUG (DNA:RNA)
RNA: B2 RNA with U25A, A26C, C28G, C30U
DNA 1: CAATCTGAATTCCGGTCTCCC
DNA 2: TGGTGGCTACGACGGGATT
B7: AGUAAGA (DNA:RNA)
RNA: B1 RNA with C26G, U28A, C29A
DNA 1: CAATCTGAATTCCGGTCTCCC
DNA 2: TGGTGGCTACGACGGGATT
B8: UUGAUUU (DNA:RNA)
RNA: B2 RNA with A26U, C27G, C28A, A29U, C30U, G31U
DNA 1: CAATCTGAATTCCGGTCTCCC
DNA 2: TGGTGGCTACGACGGGATT
B9: UUUCAUC (DNA:RNA)
RNA: B2 RNA with A26U, C27U, C30U, G31C
DNA 1: CAATCTGAATTCCGGTCTCCC
DNA 2: TGGTGGCTACGACGGGATT
B10: ACAGCUG (DNA:RNA)
RNA: B1 RNA with U27A, U28G, G30U, A31G
DNA 1: CAATCTGAATTCCGGTCTCCC
DNA 2: TGGTGGCTACGACGGGATT
B11: GGAACAA (DNA:RNA)
RNA: B1 RNA with A25G, C26G, U27A, U28A, G30A
DNA 1: CAATCTGAATTCCGGTCTCCC
DNA 2: TGGTGGCTACGACGGGATT
B12: AGUUUUU (DNA:RNA)
RNA: B1 RNA with C26G, C29U, G30U, A31U
DNA 1: CAATCTGAATTCCGGTCTCCC
DNA 2: TGGTGGCTACGACGGGATT
B13: UACUUCA (DNA:RNA)
RNA: B2 RNA with C28U, A29U, G31A
DNA 1: CAATCTGAATTCCGGTCTCCC
DNA 2: TGGTGGCTACGACGGGATT
B14: UGAGGCC (DNA:RNA)
RNA: B2 RNA with A26G, C27A, C28G, A29G, G31C
DNA 1: CAATCTGAATTCCGGTCTCCC
DNA 2: TGGTGGCTACGACGGGATT
B15: CCCUGUA (DNA:RNA)
RNA: B1 RNA with A25C, U27C, C29G, G30U
DNA 1: CAATCTGAATTCCGGTCTCCC
DNA 2: TGGTGGCTACGACGGGATT
B16: GAGCCAU (DNA:RNA)
RNA: B2 RNA with U25G, C27G, A29C, C30A, G31U
DNA 1: CAATCTGAATTCCGGTCTCCC
DNA 2: TGGTGGCTACGACGGGATT
B17: CGGUAGA (DNA:RNA)
RNA: B1 RNA with A25C, C26G, U27G, C29A
DNA 1: CAATCTGAATTCCGGTCTCCC
DNA 2: TGGTGGCTACGACGGGATT
B18: UAAGUUG (DNA:RNA)
RNA: B2 RNA with C27A, C28G, A29U, C30U
DNA 1: CAATCTGAATTCCGGTCTCCC
DNA 2: TGGTGGCTACGACGGGATT
B19: UCAUCCC (DNA:RNA)
RNA: B1 RNA with A25U, U27A, G30C, A31C
DNA 1: CAATCTGAATTCCGGTCTCCC
DNA 2: TGGTGGCTACGACGGGATT
B20: UGUAGGA (DNA:RNA)
RNA: B1 RNA with A25U, C26G, U28A, C29G
DNA 1: CAATCTGAATTCCGGTCTCCC
DNA 2: TGGTGGCTACGACGGGATT
B21: AAGAUAU (DNA:RNA)
RNA: B1 RNA with C26A, U27G, U28A, C29U, G30A, A31U
DNA 1: CAATCTGAATTCCGGTCTCCC
DNA 2: TGGTGGCTACGACGGGATT
B22: CAAAACG (DNA:RNA)
RNA: B2 RNA with U25C, C27A, C28A
DNA 1: CAATCTGAATTCCGGTCTCCC
DNA 2: TGGTGGCTACGACGGGATT
B23: GUAAGUG (DNA:RNA)
RNA: B2 RNA with U25G, A26U, C27A, C28A, A29G, C30U
DNA 1: CAATCTGAATTCCGGTCTCCC
DNA 2: TGGTGGCTACGACGGGATT
B24: AUGGGCG (DNA:RNA)
RNA: B2 RNA with U25A, A26U, C27G, C28G, A29G
DNA 1: CAATCTGAATTCCGGTCTCCC
DNA 2: TGGTGGCTACGACGGGATT
B25: AGGUUGC (DNA:RNA)
RNA: B1 RNA with C26G, U27G, C29U, A31C
DNA 1: CAATCTGAATTCCGGTCTCCC
DNA 2: TGGTGGCTACGACGGGATT
B26: GAUAUCC (DNA:RNA)
RNA: B2 RNA with U25G, C27U, C28A, A29U, G31C
DNA 1: CAATCTGAATTCCGGTCTCCC
DNA 2: TGGTGGCTACGACGGGATT
B27: UGGCUAU (DNA:RNA)
RNA: B2 RNA with A26G, C27G, A29U, C30A, G31U
DNA 1: CAATCTGAATTCCGGTCTCCC
DNA 2: TGGTGGCTACGACGGGATT
B28: CUCUUGA (DNA:RNA)
RNA: B1 RNA with A25C, C26U, U27C, C29U
DNA 1: CAATCTGAATTCCGGTCTCCC
DNA 2: TGGTGGCTACGACGGGATT
B29: GUCUAAG (DNA:RNA)
RNA: B2 RNA with U25G, A26U, C28U, C30A
DNA 1: CAATCTGAATTCCGGTCTCCC
DNA 2: TGGTGGCTACGACGGGATT
B30: UGUAUUU (DNA:RNA)
RNA: B1 RNA with A25U, C26G, U28A, C29U, G30U, A31U
DNA 1: CAATCTGAATTCCGGTCTCCC
DNA 2: TGGTGGCTACGACGGGATT
B31: AGGGUAG (DNA:RNA)
RNA: B1 RNA with C26G, U27G, U28G, C29U, G30A, A31G
DNA 1: CAATCTGAATTCCGGTCTCCC
DNA 2: TGGTGGCTACGACGGGATT

Changes are numbered by the printed parent chain; changes in the protein carry UniProt numbers. This is one part of the list.

This test has as its target T1, RBFOX1 RRM. Description: EMSA; HiTS-Eq, 1 nM pool, 10 min; buffer printed only for the single-RNA assays: 10 mM Tris pH 7.5, 150 mM NaCl, 3.4 mM EDTA, 0.001% NP-40, 30 C. To be noted: tags: His6 N-terminal (pET28a); label: 5' 32P. In outline: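 A pool of RNA with 7 randomized nucleotides, 5′-radiolabelled and with DNA-annealed flanks, was equilibrated at 1 nM for 10 min in 50 µL with purified RbFox RRM, wild type or mutant, across increasing protein concentrations. Free RNA was separated by 8% native PAGE, excised, reverse-transcribed, barcoded by PCR and sequenced. Relative association constants were obtained from read-count changes of each RNA species versus the control reaction and normalised to the cognate motif.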
Consider B1, for which the binding signal was 0.0122 KA relative to UGCAUGU.

For the molecule B2, the binding signal was 0.00532 KA relative to UGCAUGU. For the molecule B3, the binding signal was 0.0068 KA relative to UGCAUGU. The same measure for B4: 0.00939 KA relative to UGCAUGU. The same measure for B5: 0.0167 KA relative to UGCAUGU; for B6: 0.00979 KA relative to UGCAUGU; for B7: 0.0136 KA relative to UGCAUGU.

Regarding B8, the binding signal is 0.0174 KA relative to UGCAUGU.

With B9, the binding signal was 0.00526 KA relative to UGCAUGU. Next, B10: 0.00547 KA relative to UGCAUGU; B11: 0.00387 KA relative to UGCAUGU; B12: 0.0104 KA relative to UGCAUGU. The same measure for B13: 0.0037 KA relative to UGCAUGU; for B14: 0.0132 KA relative to UGCAUGU. The same measure for B15: 0.00209 KA relative to UGCAUGU; for B16: 0.00541 KA relative to UGCAUGU; for B17: 0.0125 KA relative to UGCAUGU. In the case of B18, the binding signal is 0.0177 KA relative to UGCAUGU. The same measure for B19: 0.00242 KA relative to UGCAUGU; for B20: 0.00961 KA relative to UGCAUGU; for B21: 0.00164 KA relative to UGCAUGU. For B22, the binding signal is 0.000793 KA relative to UGCAUGU.

In the case of B23, the binding signal is 0.00969 KA relative to UGCAUGU. With B24, the binding signal is 0.0219 KA relative to UGCAUGU. Next, B25: 0.0211 KA relative to UGCAUGU; B26: 0.00779 KA relative to UGCAUGU. The same measure for B27: 0.0169 KA relative to UGCAUGU. The same measure for B28: 0.0144 KA relative to UGCAUGU.

B29: the binding signal is 0.00938 KA relative to UGCAUGU. Next, B30: 0.0114 KA relative to UGCAUGU. Next, B31: 0.0176 KA relative to UGCAUGU.
